The list shows a part of the results. Sequences were assembled here from the parent chain. Values near 0.05 are background.
B1: TEV protease; numbered along this chain (parent)
chain: MGESLFKGPRDYNPISSSICHLTNESDGHTTSLYGIGFGPFIITNKHLFRRNNGTLVVQSLHGVFKVKDTTTLQQHLVDGRDMIIIRMPKDFPPFPQKLKFREPQREERICLVTTNFQTKSMSSMVSDTSCTFPSGDGIFWKHWIQTKDGQCGSPLVSTRDGFIVGIHSASNFTNTNNYFTSVPKNFMELLTNQEAQQWVSGWRLNADSVLWGGHKVFMVKPEEPFQPVKEATQL

Variants of: B1
Assay: raw area under fraction-flipped curve 0-4 h after induction (AUC4h, not background-subtracted), DNA-recorder readout of cleavage of the substrate (dimensionless); higher = more cleavage of the substrate by the protease variant
Details: temperature: 34 °C; time window: 0-4 h after rhamnose induction
Experimental: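 In vivo DNA recorder in E. coli TOP10(DE3) ΔrhaA at 34 °C. Each TEVp single-site mutant (parent TEVp 0) is paired with a single-site variant of the 7-mer TEVs (canonical ENLYFQ|S). The substrate sits between flexible linkers in a Bxb1-sfGFP-TEVs-SsrA fusion, so cleavage stabilises Bxb1 and speeds flipping of a recombination array, read by NGS. The value is the raw area under the fraction-flipped curve over 0-4 h after rhamnose induction (AUC4h), with ≥20 reads per time point. It is not background-subtracted; inactive controls average about 0.047.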
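Note: Bxb1 expression induced with 0.2% (w/v) L-rhamnose at OD600 near 0.5, cultures sampled hourly, flipped fraction per protease–substrate barcode pair counted by paired-end Illumina sequencing.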

Variant	area with substrate ENLYFQA	area with substrate ENLYFQC	area with substrate ENLYFQD	area with substrate ENLYFQG	area with substrate ENLYFQH	area with substrate ENLYFQI	area with substrate ENLYFQK	area with substrate ENLYFQL	area with substrate ENLYFQM	area with substrate ENLYFQN	area with substrate ENLYFQP	area with substrate ENLYFQR	area with substrate ENLYFQS	area with substrate ENLYFQT	area with substrate ENLYFQV	area with substrate ENLYFQW	area with substrate ENLYFQY	area with substrate ENLYFQQ	area with substrate ENLYFQE	area with substrate ENLYFQF
MGESLFKGPRDYNPISSSICHLTNESDGHTESLYGIGFGPFIITNKHLFRRNNGTLVVQSLHGVFKVKDTTTLQQHLVDGRDMIIIRMPKDFPPFPQKLKFREPQREERICLVTTNFQTKSMSSMVSDTSCTFPSGDGIFWKHWIQTKDGQCGSPLVSTRDGFIVGIHSASNFTNTNNYFTSVPKNFMELLTNQEAQQWVSGWRLNADSVLWGGHKVFMVKPEEPFQPVKEATQL [T31E]	0.0832	0.0974	0.0638	0.0783	0.0504	0.0599	0.0638	0.0661	0.0516	0.0616	0.0556	0.0597	0.0997	0.0739	0.0807	0.0566	0.0665			
MGESLFKGPRDYNPISSSICHLTNESDTHTTSLYGIGFGPFIITNKHLFRRNNGTLVVQSLHGVFKVKDTTTLQQHLVDGRDMIIIRMPKDFPPFPQKLKFREPQREERICLVTTNFQTKSMSSMVSDTSCTFPSGDGIFWKHWIQTKDGQCGSPLVSTRDGFIVGIHSASNFTNTNNYFTSVPKNFMELLTNQEAQQWVSGWRLNADSVLWGGHKVFMVKPEEPFQPVKEATQL [G28T]	0.101			0.0804		0.0538	0.0574	0.0611	0.0687	0.0846	0.043	0.0548	0.0877	0.0777	0.0658	0.0613	0.0842	0.0665		
MGESLFKGPRDYNPISSSICHLTNESDLHTTSLYGIGFGPFIITNKHLFRRNNGTLVVQSLHGVFKVKDTTTLQQHLVDGRDMIIIRMPKDFPPFPQKLKFREPQREERICLVTTNFQTKSMSSMVSDTSCTFPSGDGIFWKHWIQTKDGQCGSPLVSTRDGFIVGIHSASNFTNTNNYFTSVPKNFMELLTNQEAQQWVSGWRLNADSVLWGGHKVFMVKPEEPFQPVKEATQL [G28L]	0.0564	0.0766	0.0557	0.127		0.0593	0.0569	0.0589	0.0779	0.0725	0.0527	0.0557	0.0853	0.0604		0.0635	0.0813		0.073	0.0703
MGESLFKGPRDYNPISSSICHLTNKSDGHTTSLYGIGFGPFIITNKHLFRRNNGTLVVQSLHGVFKVKDTTTLQQHLVDGRDMIIIRMPKDFPPFPQKLKFREPQREERICLVTTNFQTKSMSSMVSDTSCTFPSGDGIFWKHWIQTKDGQCGSPLVSTRDGFIVGIHSASNFTNTNNYFTSVPKNFMELLTNQEAQQWVSGWRLNADSVLWGGHKVFMVKPEEPFQPVKEATQL [E25K]	0.0916	0.0755	0.0752	0.109		0.0571		0.0576	0.0871	0.0764	0.0409	0.0682	0.0976	0.0615	0.0538	0.0596	0.0745			0.0752
MGESLFKGPRDYNPISSSICHLTNESPGHTTSLYGIGFGPFIITNKHLFRRNNGTLVVQSLHGVFKVKDTTTLQQHLVDGRDMIIIRMPKDFPPFPQKLKFREPQREERICLVTTNFQTKSMSSMVSDTSCTFPSGDGIFWKHWIQTKDGQCGSPLVSTRDGFIVGIHSASNFTNTNNYFTSVPKNFMELLTNQEAQQWVSGWRLNADSVLWGGHKVFMVKPEEPFQPVKEATQL [D27P]	0.0854	0.108	0.0599	0.0872	0.0677	0.0618				0.0847		0.0629	0.0831	0.0696	0.0632	0.0681				
MGESLFKGPRDYNPISSSICHLTNESDGHTTQLYGIGFGPFIITNKHLFRRNNGTLVVQSLHGVFKVKDTTTLQQHLVDGRDMIIIRMPKDFPPFPQKLKFREPQREERICLVTTNFQTKSMSSMVSDTSCTFPSGDGIFWKHWIQTKDGQCGSPLVSTRDGFIVGIHSASNFTNTNNYFTSVPKNFMELLTNQEAQQWVSGWRLNADSVLWGGHKVFMVKPEEPFQPVKEATQL [S32Q]	0.109	0.118	0.0632	0.106	0.0903	0.0597	0.0642	0.0698	0.0875		0.0595		0.1	0.07	0.0597	0.0674	0.0797			
MGESLFKGPRDYNPISSSICHLTNESDGHTTALYGIGFGPFIITNKHLFRRNNGTLVVQSLHGVFKVKDTTTLQQHLVDGRDMIIIRMPKDFPPFPQKLKFREPQREERICLVTTNFQTKSMSSMVSDTSCTFPSGDGIFWKHWIQTKDGQCGSPLVSTRDGFIVGIHSASNFTNTNNYFTSVPKNFMELLTNQEAQQWVSGWRLNADSVLWGGHKVFMVKPEEPFQPVKEATQL [S32A]	0.116	0.102	0.0625	0.0821	0.0702	0.0642	0.0565	0.0643	0.0671	0.0821	0.0824	0.0586	0.105	0.0653	0.059	0.0749	0.0626		0.0655	
MGESLFKGPRDYNPISSSICHLTNESDGHTTGLYGIGFGPFIITNKHLFRRNNGTLVVQSLHGVFKVKDTTTLQQHLVDGRDMIIIRMPKDFPPFPQKLKFREPQREERICLVTTNFQTKSMSSMVSDTSCTFPSGDGIFWKHWIQTKDGQCGSPLVSTRDGFIVGIHSASNFTNTNNYFTSVPKNFMELLTNQEAQQWVSGWRLNADSVLWGGHKVFMVKPEEPFQPVKEATQL [S32G]	0.0973	0.106		0.102	0.0762		0.0601	0.0682	0.0848	0.083		0.0671	0.0954	0.0681	0.0608	0.063	0.0708		0.058	0.0783
MGESLFKGPRDYNPISSSICHLTNESDGHTTRLYGIGFGPFIITNKHLFRRNNGTLVVQSLHGVFKVKDTTTLQQHLVDGRDMIIIRMPKDFPPFPQKLKFREPQREERICLVTTNFQTKSMSSMVSDTSCTFPSGDGIFWKHWIQTKDGQCGSPLVSTRDGFIVGIHSASNFTNTNNYFTSVPKNFMELLTNQEAQQWVSGWRLNADSVLWGGHKVFMVKPEEPFQPVKEATQL [S32R]	0.0823	0.116	0.0769	0.113	0.0644	0.0546	0.0591		0.0763	0.0813		0.032	0.101	0.057		0.0416	0.0738	0.0705	0.0451	0.0796
MGESLFKGPRDYNPISSSICHLTNESDGHTTELYGIGFGPFIITNKHLFRRNNGTLVVQSLHGVFKVKDTTTLQQHLVDGRDMIIIRMPKDFPPFPQKLKFREPQREERICLVTTNFQTKSMSSMVSDTSCTFPSGDGIFWKHWIQTKDGQCGSPLVSTRDGFIVGIHSASNFTNTNNYFTSVPKNFMELLTNQEAQQWVSGWRLNADSVLWGGHKVFMVKPEEPFQPVKEATQL [S32E]	0.094	0.0876		0.077	0.0854	0.0578	0.0569	0.0603	0.0952	0.075	0.0585	0.0611	0.0943	0.0627	0.0717	0.063	0.0692	0.0686		
MGESLFKGPRDYNPISSSICHLTNESDGHTTPLYGIGFGPFIITNKHLFRRNNGTLVVQSLHGVFKVKDTTTLQQHLVDGRDMIIIRMPKDFPPFPQKLKFREPQREERICLVTTNFQTKSMSSMVSDTSCTFPSGDGIFWKHWIQTKDGQCGSPLVSTRDGFIVGIHSASNFTNTNNYFTSVPKNFMELLTNQEAQQWVSGWRLNADSVLWGGHKVFMVKPEEPFQPVKEATQL [S32P]	0.0569	0.0732	0.0524		0.0528		0.0599	0.0498	0.0587	0.0535	0.0483	0.0461	0.0623	0.0506	0.0599	0.0573	0.053	0.0405		0.0396
MGESLFKGPRDYNPISSSICHLTNESDGHTTMLYGIGFGPFIITNKHLFRRNNGTLVVQSLHGVFKVKDTTTLQQHLVDGRDMIIIRMPKDFPPFPQKLKFREPQREERICLVTTNFQTKSMSSMVSDTSCTFPSGDGIFWKHWIQTKDGQCGSPLVSTRDGFIVGIHSASNFTNTNNYFTSVPKNFMELLTNQEAQQWVSGWRLNADSVLWGGHKVFMVKPEEPFQPVKEATQL [S32M]	0.0943	0.108				0.0674	0.0618	0.068				0.0879	0.114	0.0596	0.0557	0.0786	0.101			
MGESLFKGPRDYNPISSSICHLTNESDGHTTWLYGIGFGPFIITNKHLFRRNNGTLVVQSLHGVFKVKDTTTLQQHLVDGRDMIIIRMPKDFPPFPQKLKFREPQREERICLVTTNFQTKSMSSMVSDTSCTFPSGDGIFWKHWIQTKDGQCGSPLVSTRDGFIVGIHSASNFTNTNNYFTSVPKNFMELLTNQEAQQWVSGWRLNADSVLWGGHKVFMVKPEEPFQPVKEATQL [S32W]	0.0995	0.128	0.0654	0.0987		0.0561		0.0652	0.101	0.0862	0.0496	0.0673	0.104	0.0716			0.0828			
MGESLFKGPRDYNPISSSICHLTNESDGHTTLLYGIGFGPFIITNKHLFRRNNGTLVVQSLHGVFKVKDTTTLQQHLVDGRDMIIIRMPKDFPPFPQKLKFREPQREERICLVTTNFQTKSMSSMVSDTSCTFPSGDGIFWKHWIQTKDGQCGSPLVSTRDGFIVGIHSASNFTNTNNYFTSVPKNFMELLTNQEAQQWVSGWRLNADSVLWGGHKVFMVKPEEPFQPVKEATQL [S32L]	0.0879	0.105	0.0664	0.0843	0.0677	0.0461	0.0579	0.0622	0.0635	0.0827		0.0702	0.0995		0.0516	0.0673				
MGESLFKGPRDYNPISSSICHLTNESDGHTTDLYGIGFGPFIITNKHLFRRNNGTLVVQSLHGVFKVKDTTTLQQHLVDGRDMIIIRMPKDFPPFPQKLKFREPQREERICLVTTNFQTKSMSSMVSDTSCTFPSGDGIFWKHWIQTKDGQCGSPLVSTRDGFIVGIHSASNFTNTNNYFTSVPKNFMELLTNQEAQQWVSGWRLNADSVLWGGHKVFMVKPEEPFQPVKEATQL [S32D]	0.0839	0.0926			0.0712		0.0425	0.0605	0.0819	0.0765		0.0558	0.0865	0.0747	0.0844	0.0569	0.0279	0.0677	0.0642	0.064
MGESLFKGPRDYNPISSSICHLTNESDGHSTSLYGIGFGPFIITNKHLFRRNNGTLVVQSLHGVFKVKDTTTLQQHLVDGRDMIIIRMPKDFPPFPQKLKFREPQREERICLVTTNFQTKSMSSMVSDTSCTFPSGDGIFWKHWIQTKDGQCGSPLVSTRDGFIVGIHSASNFTNTNNYFTSVPKNFMELLTNQEAQQWVSGWRLNADSVLWGGHKVFMVKPEEPFQPVKEATQL [T30S]	0.0969	0.132	0.0745	0.102	0.0825	0.0624	0.0595	0.0721	0.0956	0.0787		0.0657	0.107	0.0635	0.0565	0.0744	0.0774		0.0556	
MGESLFKGPRDYNPISSSICHLTNESDGHCTSLYGIGFGPFIITNKHLFRRNNGTLVVQSLHGVFKVKDTTTLQQHLVDGRDMIIIRMPKDFPPFPQKLKFREPQREERICLVTTNFQTKSMSSMVSDTSCTFPSGDGIFWKHWIQTKDGQCGSPLVSTRDGFIVGIHSASNFTNTNNYFTSVPKNFMELLTNQEAQQWVSGWRLNADSVLWGGHKVFMVKPEEPFQPVKEATQL [T30C]	0.103	0.119	0.0776	0.0887	0.0825	0.0629	0.0633	0.056	0.0753	0.0805	0.0522	0.0587	0.102	0.0784		0.0639	0.126	0.0845		0.0889

Source: the supplement of paper PMC12217912
